The values that follow come from PubChem BioAssay (NCI).

The subject of the experiment is NCI-H322M lung. The experiment in a line: NCI tumour cell line growth inhibition, 48 h.

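Step 1: Grow cells in 96-well plates. Step 2: Expose to compound for 48 hours at 5 concentrations. Step 3: Interpolate endpoints linearly; if unreached, use highest concentration. GI50 = concentration required for 50% inhibition of growth. Definition used: TGI = concentration required for complete inhibition of growth.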

On to `N#CC1=C(c2cccs2)Nc2c(c(-c3ccccc3)nn2-c2ccccc2)C12C(=O)Nc1ccc(Cl)cc12` (stereo not given), for which the GI50 is 13 µM and the TGI is 31.1 µM.

Take `O=C(COc1ccc(NC(=O)Nc2ccc(Cl)c(Cl)c2)cc1)N=Nc1c(O)[nH]c2ccc(Br)cc12`: the GI50 is 2.04 µM and the TGI came to 4.72 µM.

Consider `O=C(c1ccc(Cl)cc1)C(c1c[nH]c2ccccc12)c1c[nH]c2ccccc12`, for which the GI50 was 12.1 µM and the TGI was 24.6 µM.

`CN1CCN(c2ccc3c(c2)nc(NNC(=O)c2ncccn2)c2cccn23)CC1`: the GI50 is 0.357 µM and the TGI was 4.21 µM.

With `CCOP(=O)(OCC)O[C@H]1CC[C@]2(C)[C@H]3CC[C@@H]4[C@@H]([C@](C)(O)CCC=C(C)C)CC[C@@]4(C)[C@]3(C)CC[C@H]2C1(C)C`, the GI50 is 14.9 µM and the TGI amounted to 28.6 µM.
